The record followed here is PubChem BioAssay AID463173 (ICCB-Longwood Screening Facility, Harvard Medical School, 2010).

Among all 52,000 compounds or so, about 1,700 (3.3%) were called active. Cut-off read from the data, not from the text of the source: active = survival mostly below about 52% (no sharp cut-off); inactive = mostly above about 56%. The list shows a part of the results.

This assay relates to Wild type. Kind of assay: growth inhibition of S. aureus wild type versus tarO mutant, primary screen, teichoic acid synthesis inhibitors, RN4220, OD600 (AID 463173). The settings on record: S. aureus RN4220 wild type/DeltatarO growth, OD600, 18 h, hits give low values, screened at 18.75 µg/mL (by protocol).
`O=S(=O)(c1ccc(Cl)cc1)c1nc(-c2ccco2)oc1SCc1ccccc1F`: the survival was inactive: 80%.
Take `CCC(=O)N1CCc2cc(S(=O)(=O)NC(Cc3ccccc3)C(=O)Nc3ccccc3C)ccc21` (stereo not drawn): the survival is inactive: 115%.
Consider `CCOc1ccc(OCC)c(NC(=O)c2cc3ccccn3n2)c1`, for which the survival was inactive: 85%.
As to `CN(C(=O)CSc1nnc(COc2ccccc2)o1)c1ccccc1`, the survival is inactive: 103%.
On to `Cc1nc(Nc2ccc(S(N)(=O)=O)cc2)oc1C`, for which the survival is inactive: 115%.
With `CC1CCCN(CC(=O)Nc2ccc(C(=O)O)cc2)C1` (stereo not drawn), the survival is inactive: 105%.
The figure for `CC(=O)c1cccc(NS(=O)(=O)c2cc3c(cc2C)n(C)c(=O)c(=O)n3C)c1` is inactive: 92%; for `O=C(Nc1sc2c(c1C(=O)Nc1ccccc1)CCC2)c1ccc(Br)cc1` it is inactive: 133%.
On to `CCOCCCNC(=O)C(c1ccccc1)N1Cc2ccccc2C1=O` (stereo not drawn), for which the survival is inactive: 72%.
The same measure for `Cc1cccc(NC(=O)C(=O)NCC(c2ccc3c(c2)OCO3)N2CCN(c3ccccc3)CC2)c1` (stereo not drawn): inactive: 73%; for `Cc1noc(/C=C/c2ccccc2F)c1S(=O)(=O)N1CCC(C(=O)N2CCOc3ccccc32)CC1`: inactive: 65%; for `COc1ccc(C)cc1NC(=O)Nc1cccc(-c2noc(C)n2)c1`: inactive: 136%.
On to `CCc1ccc(NC(=O)Cn2c(=O)n(CCC(=O)NCCc3ccc(Cl)cc3)c(=O)c3ccccc32)cc1`, for which the survival was inactive: 85%.
On to `O=C(NC1CC1)C1C2C=CC3(O2)C1C(=O)N(C1CC1)C3C(=O)NC1CCCCC1` (stereo not drawn), for which the survival is inactive: 96%.
Regarding `COC(=O)c1ccc(NC(=O)CSC2=NCCS2)cc1`, the survival is inactive: 102%.
For the compound `COc1ccc(C(=O)Nc2nc(-c3nnn(-c4ccc(C(C)C)cc4)c3C)ns2)cc1`, the survival was inactive: 120%.
The same measure for `COc1ccccc1CCNC(=O)C(C)Sc1nc(-c2ccccc2)cc(C(F)(F)F)n1` (stereo not drawn): inactive: 53%; for `CC(=NCCCn1ccnc1)c1c(C(F)(F)F)[nH]n(-c2nc3ccccc3s2)c1=O`: inactive: 113%.
As for `Cc1ccc(-c2cc(-c3ccccc3)c(C#N)c(SCC(O)CS(=O)(=O)Cc3ccccc3)n2)cc1` (stereo not drawn), the survival was inactive: 75%.
On to `O=C(Cn1ncn2c(cc3ccccc32)c1=O)NCc1ccc(F)cc1`, for which the survival was inactive: 91%.
As for `COc1ccc(F)cc1S(=O)(=O)Nc1cccc(-c2ccc(N3CCC(C)CC3)nn2)c1`, the survival was inactive: 129%.
The figure for `CC(C)c1ccc(-c2noc(C3CCCN(S(=O)(=O)c4ccccc4)C3)n2)cc1` (stereo not drawn) is inactive: 103%; for `COc1cccc(-c2nnn(CCc3nn[nH]n3)n2)c1` it is inactive: 106%.
Take `CCCOc1ccc(CNC(=O)c2[nH]c3cc(OC)ccc3c2Sc2ccccc2)cc1`: the survival is inactive: 99%.
As to `N#Cc1c(/N=C/N2CCCCC2)sc2c1CCCC2`, the survival is inactive: 89%.
Consider `CCN1CCN(C(=S)NC)CC1`, for which the survival is inactive: 110%.
As for `COc1ccc(Nc2ncnc3c2nc2n3CCCCC2)cc1`, the survival was inactive: 85%.
In the case of `COc1ccc(CCNC(=O)c2c(C)oc3ncn(C)c(=O)c23)c(OC)c1`, the survival is inactive: 71%.
The same measure for `CC(=O)Nc1ccc(N(C(=O)Cn2nnc3ccccc32)C(C(=O)NCc2ccccc2)c2ccc(C)cc2)cc1` (stereo not drawn): inactive: 78%; for `CCN(C(=O)CSc1nc2ccccc2n1Cc1ccc(F)cc1Cl)c1ccccc1`: inactive: 90%.
The figure for `Cc1ccc2[nH]c(=O)c3cc(C(=O)NCCCN4CCC(C)CC4)sc3c2c1` is inactive: 68%.
The same measure for `O=C1C(c2ccc(F)cc2)N(CCc2ccccc2)C(=O)CN1C1CCCCCC1` (stereo not drawn): inactive: 81%.
Consider `CCCCNc1oc(-c2ccc(COc3ccc(OC)cc3)o2)nc1C#N`, for which the survival was inactive: 92%.
Take `Cc1ccc(Cl)cc1NC(=O)CN1C(=O)CCc2ccccc21`: the survival was inactive: 98%.
Turning to `CCOC(=O)c1c(C)[nH]c(C)c1S(=O)(=O)N1CCC(C(=O)NCc2ccccc2Cl)CC1`, the survival was inactive: 129%.
`COc1ccc(C)cc1N(C)C(=O)CCc1nc(-c2ccccc2F)no1`: the survival was inactive: 57%.
The same measure for `CCOC(=O)C(Cc1c[nH]c2ccccc12)NC(=O)COc1ccc(CC)cc1` (stereo not drawn): inactive: 32%.
Turning to `Cc1cc(NC(=O)CN2CCC(C)CC2)nc2c1c(=O)oc1ccccc12`, the survival was inactive: 92%.
The same measure for `CN(C)c1ccc(Nc2ncnc3sc4c(c23)CCCC4)cc1`: inactive: 124%; for `COc1ccc(CC(=O)NCc2nc3cccnc3n2Cc2ccccc2)cc1`: inactive: 59%; for `COC(=O)c1ccccc1NC(=O)CCCn1c(=O)c2cccn2c2cccnc21`: inactive: 95%.
Turning to `CCc1nc(NCCCO)c2nnn(Cc3ccccc3F)c2n1`, the survival was inactive: 106%.
The same measure for `CC(C)NC(=O)CN1C(=O)C(C)(C)Oc2ccc(C(=O)NC(C)C)cc21`: inactive: 101%; for `CCOC(=O)c1cc2oc(C)cc2n1CCCN1C(=O)c2ccccc2C1=O`: active: -1%.
The same measure for `O=C(Cn1cnc2ccccc2c1=O)NCCC(=O)Nc1ccc(F)cc1`: inactive: 71%.
Take `CC(C)COc1ccc(C(=O)Nc2cc(-c3ccccc3)no2)cc1`: the survival is inactive: 88%.
The figure for `CCc1cccc2c(C#N)cn(CCOc3ccccc3OC)c12` is inactive: 95%.
With `CCCCN(CC)CCCNC(=O)Cn1ncc2c([nH]c3ccc(C)cc32)c1=O`, the survival was inactive: 71%.
The same measure for `O=c1c2cn[nH]c2nc(SCc2c(F)cccc2F)n1-c1ccc(Cl)cc1`: inactive: 90%.
The figure for `CCCCN1C(=O)C(O)(CC(=O)c2ccc(C)cc2C)c2cc(Br)ccc21` (stereo not drawn) is active: 1%; for `O=C(NCc1ccco1)c1ccc2c(c1)N(Cc1ccc(F)cc1)C(=O)c1ccccc1S2(=O)=O` it is inactive: 152%; for `CC(C)(C)c1cc(C(F)(F)F)nc(SCCCNC(=O)c2ccco2)n1` it is inactive: 116%.
The same measure for `COc1ccc(N(CC(=O)N2CCN(c3ccc(F)cc3)CC2)S(=O)(=O)c2c(C)noc2C)cc1`: inactive: 88%; for `CCOc1cccc(C(=O)Nc2nc3c(s2)CC(C(C)(C)C)CC3)c1` (stereo not drawn): inactive: 92%; for `COc1cccc(CNC(=O)c2cc(Sc3cccc(Cl)c3)nc3ccccc23)c1`: inactive: 81%.
On to `Cc1ccc(/C=C/C(=O)Nc2ccccc2C(N)=O)o1`, for which the survival is inactive: 66%.
As for `COc1ccccc1NC(=O)COc1ccc(-c2nn(C)c(=O)c3ccccc23)cc1`, the survival was inactive: 57%.
The same measure for `COc1cc(OC)cc(-c2nc3n(n2)C(c2ccccc2)C(C(N)=O)=C(C)N3)c1` (stereo not drawn): inactive: 79%.
